Laboratory results published in the supplement of paper PMC12297408.
Structures can show the parent of a compound that is named as a salt. Screen size: about 1,300 compounds; about 40 (3%) showed activity. This is one part of the list.

Tested on: Plasmodium falciparum NF54/iGP1_RE9H ulg8 stage V gametocytes
Assay: gametocyte viability (luciferase signal relative to DMSO control) (% of DMSO control); higher = less gametocytocidal activity, active = 50 or less
Conditions: exposure time: 72 h
Summary of the method: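 In 96-well plates holding nanolitre spots of compound (10 mM DMSO stocks), NF54/iGP1_RE9Hulg8 stage V gametocytes from day 12 were added at ~2.5% gametocytemia and 3% hematocrit in medium with 0.5% Albumax II, giving single wells at 10 µM or 1 µM. Incubation lasted 72 h at 37 °C. Each 90 µl sample then received 10 µl D-luciferin (30 mg/ml) before luminescence reading on an IVIS Lumina II, and viability was normalized to the mean of DMSO vehicle wells on the same plate.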

| Compound | gametocyte viability (concentration: 1 µM) | gametocyte viability (concentration: 10 µM) |
| --- | --- | --- |
| CCOC(=O)/C=C(C)/C=C/C=C(C)/C=C/c1c(C)cc(OC)c(C)c1C [Etretinate] | inactive: 90.4 | inactive: 98.9 |
| CCCCC1C(=O)N(c2ccccc2)N(c2ccc(O)cc2)C1=O (stereo not drawn) [Oxyphenbutazone] | inactive: 87 | inactive: 78.2 |
| N[C@H]1CONC1=O [(S)-(-)-Cycloserine] | inactive: 86 | inactive: 82.5 |
| CCN(CC)C(=O)Nc1ccc(OCC(O)CNC(C)(C)C)c(C(C)=O)c1 (stereo not drawn) [Celiprolol HCl] | inactive: 93.8 | inactive: 93.2 |
| COc1cc2nc(N3CCN(C(=O)C4COc5ccccc5O4)CC3)nc(N)c2cc1OC (stereo not drawn) [Doxazosin mesylate] | inactive: 86.5 | inactive: 63.2 |
| O=P(O)(O)C(O)(Cn1ccnc1)P(=O)(O)O [Zoledronic acid hydrate] | inactive: 93.3 | inactive: 91.4 |
| Cc1cc(C(C)(C)C)cc(C)c1CC1=NCCN1 [Xylometazoline hydrochloride] | inactive: 86.3 | inactive: 88.9 |
| CCN(CC)C(=O)C1(c2ccccc2)CC1CN (stereo not drawn) [Milnacipran hydrochloride] | inactive: 83 | inactive: 84.2 |
| CCN(CCCCOC(=O)c1ccc(OC)c(OC)c1)C(C)Cc1ccc(OC)cc1 (stereo not drawn) [Mebeverine hydrochloride] | inactive: 79.8 | inactive: 92.7 |
| CCN(CC)CCOCCOC(=O)C1(c2ccccc2)CCCC1 [Carbetapentane citrate] | inactive: 79.2 | inactive: 81.5 |
| O=C(c1ccccc1)c1ccc2n1CCC2C(=O)O (stereo not drawn) [Ketorolac tromethamine] | inactive: 90.8 | inactive: 91.1 |
| CCOC(=O)[C@@](C)(N)Cc1ccc(O)c(O)c1 [Methyldopate hydrochloride] | inactive: 83.2 | inactive: 83.7 |
| COc1c(N2CCNC(C)C2)c(F)cc2c(=O)c(C(=O)O)cn(C3CC3)c12 (stereo not drawn) [Gatifloxacin] | inactive: 88 | inactive: 83.2 |
| c1ccc(CNc2ncnc3nc[nH]c23)cc1 [Aminopurine, 6-benzyl] | inactive: 69.7 | active: 43.9 |
| CN1Cc2c(N)cccc2C(c2ccccc2)C1 (stereo not drawn) [Nomifensine maleate] | inactive: 87.7 | inactive: 82.7 |
| CC(C)(O)c1ccccc1CC[C@@H](SCC1(CC(=O)O)CC1)c1cccc(/C=C/c2ccc3ccc(Cl)cc3n2)c1 [Montelukast] | inactive: 84.8 | inactive: 79.9 |
| Cc1cc(N)c2ccccc2[n+]1CCCCCCCCCC[n+]1c(C)cc(N)c2ccccc21 [Dequalinium dichloride] | inactive: 83.5 | active: 36.1 |
| Nc1ccn([C@@H]2CS[C@H](CO)O2)c(=O)n1 [Lamivudine] | inactive: 84.3 | inactive: 87.3 |
| COc1ccccc1OCC(O)COC(N)=O (stereo not drawn) [Methocarbamol] | inactive: 89 | inactive: 84.8 |
| NC1CCN(c2nc3c(cc2F)c(=O)c(C(=O)O)cn3-c2ccc(F)cc2F)C1 (stereo not drawn) [Tosufloxacin hydrochloride] | inactive: 78.5 | inactive: 86.9 |
| COC(=O)Nc1nc2cc([S+]([O-])c3ccccc3)ccc2[nH]1 (stereo not drawn) [Oxfendazol] | inactive: 91.9 | inactive: 94.8 |
| CO/N=C(\C(=O)N[C@@H]1C(=O)N2C(C(=O)OC(C)OC(C)=O)=C(COC(N)=O)CS[C@H]12)c1ccco1 (stereo partly drawn) [Cefuroxime axetil] | inactive: 94.1 | inactive: 93.9 |
| C=CCOC(Cn1ccnc1)c1ccc(Cl)cc1Cl (stereo not drawn) [Enilconazole] | inactive: 82.5 | inactive: 76.7 |
| CC(CN(C)C)CN1c2ccccc2Sc2ccccc21 (stereo not drawn) [Trimeprazine tartrate] | inactive: 87.8 | inactive: 88 |
| CC1(C)[C@@H](OC(=O)CCC(=O)O)CC[C@]2(C)[C@H]3C(=O)C=C4[C@@H]5C[C@@](C)(C(=O)O)CC[C@]5(C)CC[C@@]4(C)[C@]3(C)CC[C@@H]12 [Carbenoxolone disodium salt] | inactive: 84 | inactive: 80.8 |
| N=C(N)NCCN1CCCCCCC1 [Guanethidine sulfate] | inactive: 90.9 | inactive: 99.5 |
| C#C[C@]1(O)CC[C@H]2[C@@H]3CCC4=CC(=O)CC[C@@H]4[C@H]3CC[C@@]21CC [Norgestrel-(-)-D] | inactive: 84.3 | inactive: 80.2 |
| CCCOc1ccc(C(=O)OCCN(CC)CC)cc1N [Proparacaine hydrochloride] | inactive: 98.5 | inactive: 105 |
| CC(=O)OCC(=O)[C@@]1(OC(C)=O)[C@@H](C)C[C@H]2[C@@H]3C[C@H](F)C4=CC(=O)C=C[C@]4(C)[C@@]3(F)[C@@H](O)C[C@@]21C [Diflorasone Diacetate] | inactive: 92.2 | inactive: 89.6 |
